Some of the results follow.

In the assay the target is T1, OsWOX13 (Oryza sativa, UniProt Q5QMM3 1-267).
T1 sequence: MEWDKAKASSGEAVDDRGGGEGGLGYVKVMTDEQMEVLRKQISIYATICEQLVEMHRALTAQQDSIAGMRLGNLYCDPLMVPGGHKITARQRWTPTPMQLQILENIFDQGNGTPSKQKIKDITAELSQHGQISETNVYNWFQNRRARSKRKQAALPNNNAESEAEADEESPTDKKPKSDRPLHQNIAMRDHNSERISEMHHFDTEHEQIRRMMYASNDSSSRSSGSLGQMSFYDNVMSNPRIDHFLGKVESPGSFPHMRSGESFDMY
The experiment in a line: protein-binding microarray (RPBM); PBS, 2% BSA, 51.3 ng/ul salmon testes DNA, 50 uM zinc acetate, 200 nM TF, 25 C, 1 h; high values mean tight binding. Particulars: protein: recombinant; tags: N-terminal polyhistidine and DsRed monomer fusion (pET32a); label: CyDye5-dUTP incorporated in the synthesized complementary strand; 3' TTTTT single-stranded linker to array surface; dsDNA, one strand shown. The procedure, abridged: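 The binding signal is fluorescence intensity per feature, in arbitrary units, read on an Axon 4000B scanner. Polyhistidine- and DsRed-tagged transcription factors (N-terminal fusions) from E. coli BL21-CodonPlus were purified on Ni–NTA and applied at 200 nM for 1 h at 25 °C to a double-stranded, BSA-blocked custom Agilent array in buffer with 50 µM zinc acetate.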
As to “AAATTGTGTAATTTTGAAATTAATTAGGGCGTTTAGTGAACGGAGTCACCTAGTGCAG”, the binding signal is 21900 fluorescence intensity (a.u.).

For the sequence “AATTAGATTAATACAAATATATGGTGGCAGTAATTGGATACGGAGTCACCTAGTGCAG”, the binding signal was 9430 fluorescence intensity (a.u.).

For “CATATTAAACGAACTGATTGCAAGAATTCAGTAAGAACTTCGGAGTCACCTAGTGCAG”, the binding signal is 13800 fluorescence intensity (a.u.).

With “CCTAGCTAATTTGTGCCACCTTAGATATGTTCTTAACATCCGGAGTCACCTAGTGCAG”, the binding signal was 5100 fluorescence intensity (a.u.).

For “GGTTTCTTTAATTATGTAACGTCTATGCCGACAAATAATGCGGAGTCACCTAGTGCAG”, the binding signal was 6580 fluorescence intensity (a.u.).

For the sequence “AAACAAGGCCTCCACCTGATTGATATCCCTTTGTCATCATCGGAGTCACCTAGTGCAG”, the binding signal is 12500 fluorescence intensity (a.u.).

Turning to “TTTAATTTGTATTGGCTACAGGCTCACACGCTAACCATGACGGAGTCACCTAGTGCAG”, the binding signal was 11800 fluorescence intensity (a.u.).

As to “GTAAACGACAACCTTAATTACTTCTCAAATTTTATCATGTCGGAGTCACCTAGTGCAG”, the binding signal is 9580 fluorescence intensity (a.u.).

With “ATCTGTAATTTATTTTATTATTAGTCTACGCTTAATACTTCGGAGTCACCTAGTGCAG”, the binding signal is 22000 fluorescence intensity (a.u.).

With “GCTGATAAATTACTAGTTGTCATTCATTAACCATTTATTGCGGAGTCACCTAGTGCAG”, the binding signal is 7720 fluorescence intensity (a.u.).

Turning to “CAGTTAATAGAATAGAAAGGTGATGTGGTCCCGCACCTGACGGAGTCACCTAGTGCAG”, the binding signal is 8410 fluorescence intensity (a.u.).

“GGATGAAACATCAATATTAATTGAACTACAATTTCTCAAACGGAGTCACCTAGTGCAG”: the binding signal was 5040 fluorescence intensity (a.u.).

For the sequence “ATCATAATTGAAGCTTCTCCTTGAAACAAGCAACCACATGCGGAGTCACCTAGTGCAG”, the binding signal was 44700 fluorescence intensity (a.u.).

Turning to “TTCATGGATGACTTAATGGATTAGGAATAATTACTTATAGCGGAGTCACCTAGTGCAG”, the binding signal was 5970 fluorescence intensity (a.u.).

For “ATATAGATTGATAATTTAAAAGTAAAAGTAAGGTGATGTACGGAGTCACCTAGTGCAG”, the binding signal was 40500 fluorescence intensity (a.u.).

As to “GTCTTGATTAATTTTAGAAAGACAGGCAGCACACGCTTTCCGGAGTCACCTAGTGCAG”, the binding signal was 42100 fluorescence intensity (a.u.).

As to “GCTCATGATTTTCTATATATATATCCAAGCGAACTCCCACCGGAGTCACCTAGTGCAG”, the binding signal was 7150 fluorescence intensity (a.u.).

Turning to “GTTCTGACGTTAATTTCGTGCTTGTTATTTAGTTGTATAGCGGAGTCACCTAGTGCAG”, the binding signal is 4050 fluorescence intensity (a.u.).

On to “GCGGTTGATATGATAAAGATGAATTATAATGCACTAAACGCGGAGTCACCTAGTGCAG”, for which the binding signal was 4440 fluorescence intensity (a.u.).

As to “GTTGATAAATGCAAATATAATGTGTAATAACTGATGAGTTCGGAGTCACCTAGTGCAG”, the binding signal was 12100 fluorescence intensity (a.u.).

In the case of “AATTTGATTACAATTCGGACATAAGCATGATATATTTTACCGGAGTCACCTAGTGCAG”, the binding signal was 10900 fluorescence intensity (a.u.).

For the sequence “GGGTTAATTAGCTTTCACCATATATTGATGAAGTAATTGACGGAGTCACCTAGTGCAG”, the binding signal is 45800 fluorescence intensity (a.u.).

In the case of “CATGGTGTTTTGATTAATGTGATTTAAATTATACTTGGTCCGGAGTCACCTAGTGCAG”, the binding signal is 23900 fluorescence intensity (a.u.).

Regarding “CCACCATTCTTTTATTGATTTATGTGTGAGACTGACATGTCGGAGTCACCTAGTGCAG”, the binding signal was 8450 fluorescence intensity (a.u.).

In the case of “CTCGCCCTTGATTGGTTCGATACACGTTTTCCCCTCGTTTCGGAGTCACCTAGTGCAG”, the binding signal was 38200 fluorescence intensity (a.u.).

For the sequence “GTGATATATGTGATTGACCAAACATACAGGTACAGTAATTCGGAGTCACCTAGTGCAG”, the binding signal is 28100 fluorescence intensity (a.u.).

For the sequence “GTTTTAATCATATATATCAATATGTGCTAATGCTATAGCACGGAGTCACCTAGTGCAG”, the binding signal was 5290 fluorescence intensity (a.u.).

Regarding “AATAATTTATTTGCGAACTTAATATCATTATCATTGTTGTCGGAGTCACCTAGTGCAG”, the binding signal was 29200 fluorescence intensity (a.u.).

Consider “ATTTCCACTAATGATCATTACCTGTAATTCAAGCCCCTCTCGGAGTCACCTAGTGCAG”, for which the binding signal is 3570 fluorescence intensity (a.u.).

On to “ATTTGATATATGCAAATTTAGTACTAGCCCCACACATATTCGGAGTCACCTAGTGCAG”, for which the binding signal is 4560 fluorescence intensity (a.u.).

Regarding “TTTAATTATTTGTCCGACAAGTTTCCAAACAATCTAAATACGGAGTCACCTAGTGCAG”, the binding signal is 3880 fluorescence intensity (a.u.).

As for “AAAGATTAACTTAGGTGGGAAGGACAACGAATCTGAATCCCGGAGTCACCTAGTGCAG”, the binding signal is 3190 fluorescence intensity (a.u.).

Regarding “GCATGTTCGTCACAATCAATTAATGCATACTGATAGTGATCGGAGTCACCTAGTGCAG”, the binding signal is 30200 fluorescence intensity (a.u.).

With “TGTGGCTTAATTAGTTCAAGTAGCAGCTCCTCCTGCAGTCCGGAGTCACCTAGTGCAG”, the binding signal was 9370 fluorescence intensity (a.u.).

On to “GTAATTTAATATGAGCTTCATTGGTGCAACAGTGGTGTGTCGGAGTCACCTAGTGCAG”, for which the binding signal was 3180 fluorescence intensity (a.u.).

Take “GCCTTTCTCATTTTCTTTTCTTTTCCTTTTGTCCTCAGAACGGAGTCACCTAGTGCAG”: the binding signal was 4070 fluorescence intensity (a.u.).

Regarding “TTGGAATTTGGGGATTGGGAAGAGAGAAATCAGATTGGAACGGAGTCACCTAGTGCAG”, the binding signal is 4300 fluorescence intensity (a.u.).

As to “GCCAAATTGACAGAGTTACCTCGCTATATAAGGCTGCCCACGGAGTCACCTAGTGCAG”, the binding signal was 57600 fluorescence intensity (a.u.).

Turning to “GGTGGTGGTGGTGGAGAGAGAGAGGAGTGCGTCGCCGACGCGGAGTCACCTAGTGCAG”, the binding signal was 9000 fluorescence intensity (a.u.).

For the sequence “AAAATTACAGTGTAATTACATCATAACTTACGTGTAATTACGGAGTCACCTAGTGCAG”, the binding signal is 15200 fluorescence intensity (a.u.).

Take “CTTTCCAAAACTTCAATCACAACACAATAACATCCACCACCGGAGTCACCTAGTGCAG”: the binding signal was 13200 fluorescence intensity (a.u.).

For “CTTAATTTGTCACCGAATCCGATTTTCGTACCTCAACCAACGGAGTCACCTAGTGCAG”, the binding signal is 24700 fluorescence intensity (a.u.).

Source of the values: PMC7819943, “Rice protein-binding microarrays: a tool to detect cis-acting elements near promoter regions in rice”.
